Drawing on PMC8668186, “Molecular architecture of the human tRNA ligase complex” (eLife, 2021), this text covers cross-linked residues for 4 substances.

Targets include RTCB (UniProt Q9Y3I0); RTRAF (UniProt Q9Y224); C2orf49 (UniProt Q9BVC5).
What all share (assay): cross-linking mass spectrometry
Holding throughout (conditions): DSS, purified complex

The source holds more than one record for some entries. The other results are left out here. There may be further records. Some protein pairs were linked at several places, one record each.

Chain of UniProt Q9Y3I0 (Q9Y3I0 whole entry): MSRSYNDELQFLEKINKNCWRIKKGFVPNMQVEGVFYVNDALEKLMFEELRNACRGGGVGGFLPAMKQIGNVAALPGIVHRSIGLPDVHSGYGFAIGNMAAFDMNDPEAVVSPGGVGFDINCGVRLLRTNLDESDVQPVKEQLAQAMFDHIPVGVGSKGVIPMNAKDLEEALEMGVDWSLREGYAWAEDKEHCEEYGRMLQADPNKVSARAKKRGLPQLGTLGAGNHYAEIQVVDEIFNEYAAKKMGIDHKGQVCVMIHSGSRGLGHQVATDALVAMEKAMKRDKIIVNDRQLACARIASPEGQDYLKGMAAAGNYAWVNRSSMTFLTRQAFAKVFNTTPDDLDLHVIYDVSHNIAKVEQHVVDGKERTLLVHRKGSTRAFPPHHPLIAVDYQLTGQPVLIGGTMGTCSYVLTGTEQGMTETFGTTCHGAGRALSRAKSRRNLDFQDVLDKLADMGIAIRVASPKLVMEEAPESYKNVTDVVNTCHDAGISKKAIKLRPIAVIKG
Chain of DDX1 (Q92499 whole entry): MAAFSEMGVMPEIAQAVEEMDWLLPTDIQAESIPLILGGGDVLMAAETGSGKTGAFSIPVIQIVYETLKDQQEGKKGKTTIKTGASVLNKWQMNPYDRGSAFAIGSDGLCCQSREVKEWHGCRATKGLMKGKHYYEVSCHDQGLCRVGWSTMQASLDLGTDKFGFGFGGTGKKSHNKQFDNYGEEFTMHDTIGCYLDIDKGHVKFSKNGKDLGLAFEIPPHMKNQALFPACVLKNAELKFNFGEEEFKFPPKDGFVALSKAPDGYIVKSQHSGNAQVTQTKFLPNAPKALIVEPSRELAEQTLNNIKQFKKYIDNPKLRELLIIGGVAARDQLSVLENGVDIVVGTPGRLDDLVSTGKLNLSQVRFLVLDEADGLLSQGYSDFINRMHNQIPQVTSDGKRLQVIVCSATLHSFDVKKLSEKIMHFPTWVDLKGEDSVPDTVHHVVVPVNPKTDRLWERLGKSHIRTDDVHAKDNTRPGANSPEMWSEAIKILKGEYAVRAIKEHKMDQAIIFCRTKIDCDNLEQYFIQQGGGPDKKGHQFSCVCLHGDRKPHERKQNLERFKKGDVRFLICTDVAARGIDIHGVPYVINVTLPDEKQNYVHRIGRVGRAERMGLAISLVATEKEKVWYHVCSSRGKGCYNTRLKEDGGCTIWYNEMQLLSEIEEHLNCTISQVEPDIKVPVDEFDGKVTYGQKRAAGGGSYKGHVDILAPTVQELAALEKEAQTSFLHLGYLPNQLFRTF
Chain of RTRAF (Q9Y224 whole entry): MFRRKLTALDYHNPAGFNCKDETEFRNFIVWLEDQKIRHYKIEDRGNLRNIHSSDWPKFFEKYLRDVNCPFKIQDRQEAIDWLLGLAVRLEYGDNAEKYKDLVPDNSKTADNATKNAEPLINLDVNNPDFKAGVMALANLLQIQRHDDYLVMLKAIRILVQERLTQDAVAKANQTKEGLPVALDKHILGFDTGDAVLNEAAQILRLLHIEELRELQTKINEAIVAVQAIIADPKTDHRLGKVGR
Chain of RTRAF, Q9Y224 (Q9Y224 whole entry): as above
Chain of FAM98B (Q52LJ0 whole entry): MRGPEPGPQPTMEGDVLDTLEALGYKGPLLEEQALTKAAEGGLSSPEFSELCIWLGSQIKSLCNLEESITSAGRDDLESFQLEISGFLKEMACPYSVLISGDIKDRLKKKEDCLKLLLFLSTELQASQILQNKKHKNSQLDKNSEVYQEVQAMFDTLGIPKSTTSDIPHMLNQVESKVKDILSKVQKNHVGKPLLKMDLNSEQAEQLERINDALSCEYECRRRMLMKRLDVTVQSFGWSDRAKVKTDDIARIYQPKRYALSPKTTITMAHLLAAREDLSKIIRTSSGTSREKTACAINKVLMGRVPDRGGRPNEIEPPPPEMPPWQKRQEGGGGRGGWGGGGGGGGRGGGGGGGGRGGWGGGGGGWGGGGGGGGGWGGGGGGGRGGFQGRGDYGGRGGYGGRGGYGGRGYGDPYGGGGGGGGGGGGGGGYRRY
Chain of C2orf49 (Q9BVC5 whole entry): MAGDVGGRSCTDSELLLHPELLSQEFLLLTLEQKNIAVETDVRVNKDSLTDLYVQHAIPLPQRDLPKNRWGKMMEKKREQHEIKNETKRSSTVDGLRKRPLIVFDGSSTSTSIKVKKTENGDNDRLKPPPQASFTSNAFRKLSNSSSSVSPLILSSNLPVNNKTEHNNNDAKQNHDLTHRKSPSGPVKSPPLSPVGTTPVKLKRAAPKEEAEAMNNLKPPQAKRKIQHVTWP
Chain of C2orf49, Q9BVC5 (Q9BVC5 whole entry): as above

Consider C2orf49, Q9BVC5, for which the cross-linked residues entry was “K127 - K366 and K127 - K465 and K225 - K366” with RTCB; “K46 - K20 and K72 - K98 and K84 - K41 and K84 - K58 and K84 - K62 and K88 - K62 and K98 - K41 and K98 - K62 and K117 - K20 and K127 - K20 and K127 - K41 and K127 - K62 and K127 - K72 and K127 - K234” with RTRAF.
For RTRAF, Q9Y224, the cross-linked residues entry in the experiment with RTCB is “K41 - K366 and K171 - K245 and K176 - K244 and K176 - K245 and K185 - K492 and K234 - K158”.
Regarding FAM98B, Q52LJ0, the cross-linked residues result was “K245 - K84 and K245 - K98 and K245 - K127 and K256 - K46 and K256 - K98 and K256 - K127” with C2orf49; “K26 - K100 and K110 - K72 and K115 - K72 and K136 - K98 and K136 - K100 and K142 - K100 and K142 - K108 and K177 - K171 and K179 - K154 and K184 - K154 and K184 - K171 and K187 - K171 and K245 - K41 and K245 - K234 and K256 - K20 and K256 - K98 and K256 - K100 and K256 - K154 and K256 - K171 and K256 - K234 and K263 - K154 and K280 - K154 and K280 - K176” in the experiment with RTRAF.
With DDX1, Q92499, the cross-linked residues result in the experiment with C2orf49 is “K358 - K127 and K472 - K98 and K472 - K127 and K472 - K225”; in the experiment with RTCB, “K117 - K285 and K117 - K366 and K117 - K465 and K317 - K465 and K358 - K465 and K399 - K285 and K399 - K465 and K472 - K206 and K472 - K285 and K472 - K366 and K505 - K285 and K516 - K285 and K536 - K285 and K623 - K465 and K687 - K206 and K693 - K206 and K693 - K285 and K693 - K366 and K702 - K206 and K702 - K308”; with RTRAF, “K117 - K20 and K472 - K20 and K636 - K20 and K693 - K20 and K693 - K62”.
